# Laboratory results reported in publication PMC12820563.
# Some of the results follow. The list includes weakly bound sequences.
# Molecular target: T1, MBP-FoxP3dN (UniProt Q99JB6)
# T1 sequence: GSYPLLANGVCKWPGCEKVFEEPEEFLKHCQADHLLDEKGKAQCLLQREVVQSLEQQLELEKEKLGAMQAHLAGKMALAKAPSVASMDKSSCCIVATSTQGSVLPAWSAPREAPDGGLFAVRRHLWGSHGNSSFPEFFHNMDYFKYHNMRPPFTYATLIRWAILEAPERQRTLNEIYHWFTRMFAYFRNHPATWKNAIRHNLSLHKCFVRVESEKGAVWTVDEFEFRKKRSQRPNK
# Test: PD-seq (MBP pull-down with sequencing)
# Conditions: 20 mM Tris-HCl pH 7.5, 100 mM NaCl, 1.5 mM MgCl2, 0.4 uM protein, 0.1 uM dsDNA library, 30 min, room temperature, amylose pull-down; high values mean tight binding; double strand, one strand shown
row,Sequence,binding signal (RPM ratio (pull-down/input))
1,GATGATTGTTCTCCCAGCTGATGAATTGGGTAGTTCGAGTAAACAAATTTTCCTAATCTTTCTGTTCAAGCGCCATCTAC,0.703
2,GATGATTGTTCTCCCAGCTGATGAATTCTACCACTCGAGTAAACAAATTTTCCTAATCTTTCTGTTCAAGCGCCATCTAC,0.392
3,GATGATTGTTCTCCCAGCTGATGAATTAAGCTGATCGAGTAAACAAATTTTCCTAATCTTTCTGTTCAAGCGCCATCTAC,0.512
4,GATGATTGTTCTCCCAGCTGATGAATTAGGGATATCGAGTAAACAAATTTTCCTAATCTTTCTGTTCAAGCGCCATCTAC,0.46
5,GATGATTGTTCTCCCAGCTGATGAATTACTACGTTCGAGTAAACAAATTTTCCTAATCTTTCTGTTCAAGCGCCATCTAC,0.412
6,GATGATTGTTCTCCCAGCTGATGAATTTGAGACCTCGAGTAAACAAATTTTCCTAATCTTTCTGTTCAAGCGCCATCTAC,0.355
7,GATGATTGTTCTCCCAGCTGATGAATTGCAACGATCGAGTAAACAAATTTTCCTAATCTTTCTGTTCAAGCGCCATCTAC,1.15
8,GATGATTGTTCTCCCAGCTGATGAATTCTGTAGGTCGAGTAAACAAATTTTCCTAATCTTTCTGTTCAAGCGCCATCTAC,0.948
9,GATGATTGTTCTCCCAGCTGATGAATTCGTGAAGTCGAGTAAACAAATTTTCCTAATCTTTCTGTTCAAGCGCCATCTAC,0.253
10,GATGATTGTTCTCCCAGCTGATGAATTCAATGACTCGAGTAAACAAATTTTCCTAATCTTTCTGTTCAAGCGCCATCTAC,0.766
11,GATGATTGTTCTCCCAGCTGATGAATTCACCAGCTCGAGTAAACAAATTTTCCTAATCTTTCTGTTCAAGCGCCATCTAC,0.211
12,GATGATTGTTCTCCCAGCTGATGAATTTAGCAACTCGAGTAAACAAATTTTCCTAATCTTTCTGTTCAAGCGCCATCTAC,5.48
13,GATGATTGTTCTCCCAGCTGATGAATTCGTGATCTCGAGTAAACAAATTTTCCTAATCTTTCTGTTCAAGCGCCATCTAC,0.753
14,GATGATTGTTCTCCCAGCTGATGAATTATAGGTTTCGAGTAAACAAATTTTCCTAATCTTTCTGTTCAAGCGCCATCTAC,0.547
15,GATGATTGTTCTCCCAGCTGATGAATTTGACTAATCGAGTAAACAAATTTTCCTAATCTTTCTGTTCAAGCGCCATCTAC,0.313
16,GATGATTGTTCTCCCAGCTGATGAATTTTTACGGTCGAGTAAACAAATTTTCCTAATCTTTCTGTTCAAGCGCCATCTAC,0.208
17,GATGATTGTTCTCCCAGCTGATGAATTGAGACCTTCGAGTAAACAAATTTTCCTAATCTTTCTGTTCAAGCGCCATCTAC,0.343
18,GATGATTGTTCTCCCAGCTGATGAATTAATAGACTCGAGTAAACAAATTTTCCTAATCTTTCTGTTCAAGCGCCATCTAC,0.38
19,GATGATTGTTCTCCCAGCTGATGAATTCACGGAATCGAGTAAACAAATTTTCCTAATCTTTCTGTTCAAGCGCCATCTAC,0.2
20,GATGATTGTTCTCCCAGCTGATGAATTGCGAGTCTCGAGTAAACAAATTTTCCTAATCTTTCTGTTCAAGCGCCATCTAC,1.52
21,GATGATTGTTCTCCCAGCTGATGAATTGCACAGATCGAGTAAACAAATTTTCCTAATCTTTCTGTTCAAGCGCCATCTAC,0.519

row,Sequence,binding signal (RPM ratio (pull-down/input))
1,GATGATTGTTCTCCCAGCTGATGAATTTCCAGCTTCGAGTAAACAAATTTTCCTAATCTTTCTGTTCAAGCGCCATCTAC,0.255
2,GATGATTGTTCTCCCAGCTGATGAATTTCGGGTATCGAGTAAACAAATTTTCCTAATCTTTCTGTTCAAGCGCCATCTAC,0.571
3,GATGATTGTTCTCCCAGCTGATGAATTACCATCTTCGAGTAAACAAATTTTCCTAATCTTTCTGTTCAAGCGCCATCTAC,0.5
4,GATGATTGTTCTCCCAGCTGATGAATTTGAAGAGTCGAGTAAACAAATTTTCCTAATCTTTCTGTTCAAGCGCCATCTAC,0.213
5,GATGATTGTTCTCCCAGCTGATGAATTGTCAACGTCGAGTAAACAAATTTTCCTAATCTTTCTGTTCAAGCGCCATCTAC,0.651
6,GATGATTGTTCTCCCAGCTGATGAATTCAGTTATTCGAGTAAACAAATTTTCCTAATCTTTCTGTTCAAGCGCCATCTAC,2.8
7,GATGATTGTTCTCCCAGCTGATGAATTTCGACGGTCGAGTAAACAAATTTTCCTAATCTTTCTGTTCAAGCGCCATCTAC,0.251
8,GATGATTGTTCTCCCAGCTGATGAATTTCGCGAGTCGAGTAAACAAATTTTCCTAATCTTTCTGTTCAAGCGCCATCTAC,0.675
9,GATGATTGTTCTCCCAGCTGATGAATTTGGTGGCTCGAGTAAACAAATTTTCCTAATCTTTCTGTTCAAGCGCCATCTAC,1.09
10,GATGATTGTTCTCCCAGCTGATGAATTGTATGAGTCGAGTAAACAAATTTTCCTAATCTTTCTGTTCAAGCGCCATCTAC,1.36
11,GATGATTGTTCTCCCAGCTGATGAATTTTGTGAGTCGAGTAAACAAATTTTCCTAATCTTTCTGTTCAAGCGCCATCTAC,4.18
12,GATGATTGTTCTCCCAGCTGATGAATTGTGAAACTCGAGTAAACAAATTTTCCTAATCTTTCTGTTCAAGCGCCATCTAC,1.2
13,GATGATTGTTCTCCCAGCTGATGAATTGTCTGACTCGAGTAAACAAATTTTCCTAATCTTTCTGTTCAAGCGCCATCTAC,0.285
14,GATGATTGTTCTCCCAGCTGATGAATTCTGGGTTTCGAGTAAACAAATTTTCCTAATCTTTCTGTTCAAGCGCCATCTAC,0.611
15,GATGATTGTTCTCCCAGCTGATGAATTAAGACACTCGAGTAAACAAATTTTCCTAATCTTTCTGTTCAAGCGCCATCTAC,1.36
16,GATGATTGTTCTCCCAGCTGATGAATTGAAGGGCTCGAGTAAACAAATTTTCCTAATCTTTCTGTTCAAGCGCCATCTAC,0.213
17,GATGATTGTTCTCCCAGCTGATGAATTAGCAAGTTCGAGTAAACAAATTTTCCTAATCTTTCTGTTCAAGCGCCATCTAC,0.415
18,GATGATTGTTCTCCCAGCTGATGAATTAAAGGCGTCGAGTAAACAAATTTTCCTAATCTTTCTGTTCAAGCGCCATCTAC,0.645
19,GATGATTGTTCTCCCAGCTGATGAATTAATGTAGTCGAGTAAACAAATTTTCCTAATCTTTCTGTTCAAGCGCCATCTAC,0.915
20,GATGATTGTTCTCCCAGCTGATGAATTTGGGCTGTCGAGTAAACAAATTTTCCTAATCTTTCTGTTCAAGCGCCATCTAC,0.46
21,GATGATTGTTCTCCCAGCTGATGAATTCGTGGCTTCGAGTAAACAAATTTTCCTAATCTTTCTGTTCAAGCGCCATCTAC,0.704

row,Sequence,binding signal (RPM ratio (pull-down/input))
1,GATGATTGTTCTCCCAGCTGATGAATTCTATAGTTCGAGTAAACAAATTTTCCTAATCTTTCTGTTCAAGCGCCATCTAC,0.74
2,GATGATTGTTCTCCCAGCTGATGAATTCCTATCCTCGAGTAAACAAATTTTCCTAATCTTTCTGTTCAAGCGCCATCTAC,0.271
3,GATGATTGTTCTCCCAGCTGATGAATTATGGTGTTCGAGTAAACAAATTTTCCTAATCTTTCTGTTCAAGCGCCATCTAC,1.57
4,GATGATTGTTCTCCCAGCTGATGAATTATCATCATCGAGTAAACAAATTTTCCTAATCTTTCTGTTCAAGCGCCATCTAC,0.654
5,GATGATTGTTCTCCCAGCTGATGAATTACGATCTTCGAGTAAACAAATTTTCCTAATCTTTCTGTTCAAGCGCCATCTAC,0.423
6,GATGATTGTTCTCCCAGCTGATGAATTGACTTGCTCGAGTAAACAAATTTTCCTAATCTTTCTGTTCAAGCGCCATCTAC,0.466
7,GATGATTGTTCTCCCAGCTGATGAATTGGCGTGCTCGAGTAAACAAATTTTCCTAATCTTTCTGTTCAAGCGCCATCTAC,1.07
8,GATGATTGTTCTCCCAGCTGATGAATTGTTATCATCGAGTAAACAAATTTTCCTAATCTTTCTGTTCAAGCGCCATCTAC,3.17
9,GATGATTGTTCTCCCAGCTGATGAATTGTGCTTTTCGAGTAAACAAATTTTCCTAATCTTTCTGTTCAAGCGCCATCTAC,4.22
10,GATGATTGTTCTCCCAGCTGATGAATTTTGTTGATCGAGTAAACAAATTTTCCTAATCTTTCTGTTCAAGCGCCATCTAC,7.34
11,GATGATTGTTCTCCCAGCTGATGAATTTAATCAATCGAGTAAACAAATTTTCCTAATCTTTCTGTTCAAGCGCCATCTAC,0.269
12,GATGATTGTTCTCCCAGCTGATGAATTAGCATCCTCGAGTAAACAAATTTTCCTAATCTTTCTGTTCAAGCGCCATCTAC,5.16
13,GATGATTGTTCTCCCAGCTGATGAATTGATACGCTCGAGTAAACAAATTTTCCTAATCTTTCTGTTCAAGCGCCATCTAC,0.861
14,GATGATTGTTCTCCCAGCTGATGAATTACAAGAGTCGAGTAAACAAATTTTCCTAATCTTTCTGTTCAAGCGCCATCTAC,0.34
15,GATGATTGTTCTCCCAGCTGATGAATTCCGACCTTCGAGTAAACAAATTTTCCTAATCTTTCTGTTCAAGCGCCATCTAC,0.331
16,GATGATTGTTCTCCCAGCTGATGAATTTGGCACTTCGAGTAAACAAATTTTCCTAATCTTTCTGTTCAAGCGCCATCTAC,1.06
17,GATGATTGTTCTCCCAGCTGATGAATTGTCTCTTTCGAGTAAACAAATTTTCCTAATCTTTCTGTTCAAGCGCCATCTAC,0.475
18,GATGATTGTTCTCCCAGCTGATGAATTGAGTCAATCGAGTAAACAAATTTTCCTAATCTTTCTGTTCAAGCGCCATCTAC,0.387
19,GATGATTGTTCTCCCAGCTGATGAATTCCGCTCATCGAGTAAACAAATTTTCCTAATCTTTCTGTTCAAGCGCCATCTAC,0.571
20,GATGATTGTTCTCCCAGCTGATGAATTGTGAGTGTCGAGTAAACAAATTTTCCTAATCTTTCTGTTCAAGCGCCATCTAC,2.88
21,GATGATTGTTCTCCCAGCTGATGAATTCCGGTGATCGAGTAAACAAATTTTCCTAATCTTTCTGTTCAAGCGCCATCTAC,0.44
